Publication PMC4336329 (PLoS ONE, 2015)
Screen size: about 310,000 compounds; about 14,000 (4.5%) showed an effect of 50% or more. Effects have a minus sign here. The list shows a part of the results.

target: human ether-à-go-go-related gene (hERG) potassium channel (human, UniProt Q12809); assay: primary screen, population patch clamp on CHO cells stably expressing hERG
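Also: peak tail current of the secondary pulse compared with the same well before compound.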

human ether-à-go-go-related gene (hERG) potassium channel, sequence (Q12809 whole entry, looked up): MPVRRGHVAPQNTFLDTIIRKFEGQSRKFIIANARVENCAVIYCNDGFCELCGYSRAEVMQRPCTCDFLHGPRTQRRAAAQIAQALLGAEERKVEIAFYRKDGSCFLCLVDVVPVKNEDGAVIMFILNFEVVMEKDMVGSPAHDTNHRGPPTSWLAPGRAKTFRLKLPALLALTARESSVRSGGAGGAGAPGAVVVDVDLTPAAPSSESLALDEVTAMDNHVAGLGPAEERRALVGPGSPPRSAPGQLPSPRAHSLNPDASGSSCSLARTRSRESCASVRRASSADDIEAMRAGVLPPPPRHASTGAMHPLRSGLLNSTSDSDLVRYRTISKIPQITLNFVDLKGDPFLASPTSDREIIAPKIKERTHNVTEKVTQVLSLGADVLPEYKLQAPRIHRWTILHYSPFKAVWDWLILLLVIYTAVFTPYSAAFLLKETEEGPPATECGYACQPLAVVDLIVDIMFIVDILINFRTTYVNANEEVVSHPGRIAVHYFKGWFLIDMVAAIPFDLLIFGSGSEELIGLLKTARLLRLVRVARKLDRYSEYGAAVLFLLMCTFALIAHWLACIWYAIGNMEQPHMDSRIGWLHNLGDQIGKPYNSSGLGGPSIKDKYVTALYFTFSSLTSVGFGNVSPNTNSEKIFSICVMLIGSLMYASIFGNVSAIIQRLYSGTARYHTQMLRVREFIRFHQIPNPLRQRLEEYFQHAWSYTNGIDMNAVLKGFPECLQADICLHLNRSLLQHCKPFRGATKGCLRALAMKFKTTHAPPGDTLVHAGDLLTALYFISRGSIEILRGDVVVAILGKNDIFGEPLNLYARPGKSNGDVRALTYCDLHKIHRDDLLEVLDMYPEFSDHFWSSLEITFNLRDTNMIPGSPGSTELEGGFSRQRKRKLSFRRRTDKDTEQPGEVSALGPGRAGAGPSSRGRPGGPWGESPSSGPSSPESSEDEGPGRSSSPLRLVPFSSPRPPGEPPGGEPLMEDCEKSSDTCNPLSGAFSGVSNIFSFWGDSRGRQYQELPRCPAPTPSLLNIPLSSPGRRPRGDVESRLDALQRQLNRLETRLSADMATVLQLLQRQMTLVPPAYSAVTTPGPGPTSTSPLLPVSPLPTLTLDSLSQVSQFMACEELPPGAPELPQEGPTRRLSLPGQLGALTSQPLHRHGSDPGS

SMILES	hERG current change (%, negative = inhibition) at 10uM
COc1cccc(OC)c1C(=O)N=c1sc2cc(S(C)(=O)=O)ccc2n1C	8.26%
Cc1ccc(NC(=O)C(OC(=O)c2cnc(C)cn2)c2ccccc2)c([N+](=O)[O-])c1 (centres unmarked)	-21.6%
CC(=O)c1ccc(O)c(CC=C(C)C)c1	1.81%
O=C(CCS(=O)(=O)Cc1ccccc1)Nc1ccc2c(c1)OCCO2	17.5%
COc1ccc([C@H]2C=C3CN(C(=O)OC(C)(C)C)S(=O)(=O)[C@H]3C[C@H]2OC(=O)c2cccs2)cc1	2.33%
COc1cccc(CNC(=O)CCC2CCCN(C(=O)c3cscn3)C2)c1 (centres unmarked)	6.49%
COc1ccc(CCNC(=O)c2cc(S(=O)(=O)N3CCOCC3)ccc2F)cc1	-18%
CCOc1ccc(S(=O)(=O)N2CCN=C2c2ccccc2)cc1	-15.9%
O=C(NNC(=S)NC(=O)C12CC3CC(CC(C3)C1)C2)c1ccncc1	19.8%
COc1ccc([C@H]2CC(=O)C=C(c3cccc(C(C)C)c3)C2)cc1	-2.79%
COc1ccc(NC(=O)C2CCN(c3cnccn3)CC2)cc1Cl	7.57%
COC(=O)Cc1ccc(NC(=S)NCc2ccc(Cl)cc2)cc1	-30%
Cc1onc(-c2ccccc2Cl)c1C(=O)Nc1ccccc1	-5.01%
O=C(Nc1cc(SCCO)cc([N+](=O)[O-])c1)c1ccc(Br)o1	-29.5%
CCC(CC)NC(=O)COC(=O)c1cc(SC)ccc1Cl	-0.371%
NC(=O)Cn1c(=O)n(CCCC(=O)NC2CCN(Cc3ccccc3)CC2)c(=O)c2ccccc21	-6.48%
O=C(c1ccc(C#CC2(O)CCCCC2)cc1)N1CCN(C(c2ccccc2)c2ccccc2)CC1	20.3%
Cc1cc(C)c(C)c(S(=O)(=O)NCc2ccc(C(=O)N3CCCC3)cc2)c1C	8.62%
CNc1nc2cccnc2s1	8.71%
COCCN(C(=O)CC(C)(C)C)c1nnc(-c2cccnc2)s1	-7.21%
COC(=O)c1ccc(N2CCc3ccccc32)c([N+](=O)[O-])c1	10.5%

SMILES	hERG current change (%, negative = inhibition) at 10uM
C[C@@H]1C(=O)O[C@@H]2CC34[C@H]5C[C@@H](C(C)(C)C)C36[C@H](OC(=O)[C@@H]6O)OC4(C(=O)O5)[C@@]12O (some centres unmarked)	15.2%
Nc1nc(-c2ccccc2)cc(-c2ccccc2O)n1	0.93%
O=C1SCC(c2ccc(Cl)cc2Cl)=NN1Cc1nnc(-c2ccccc2)o1	1.48%
CCOc1ccc(OCC)c(NC(=O)C2CCN(c3ncccn3)CC2)c1	-30%
CS(=O)(=O)N(CC(=O)N1CCOCC1)c1cc(C(F)(F)F)ccc1Cl	13.6%
O=C(CSCc1ccc(Cl)cc1)NN=C1CCCC1	-13.6%
O=C(COc1coc(CN2CCN(c3ccccc3)CC2)cc1=O)NCC1CCCO1 (centres unmarked)	10.7%
Cc1cc2cc(CN(Cc3cccs3)Cc3nnnn3CC3CCCO3)c(=O)[nH]c2cc1C (centres unmarked)	-14.8%
CCCc1cc(=O)oc2c(C)c(OCC(=O)N3CCC(C(=O)O)(c4ccccc4)CC3)ccc12	-0.856%
Cc1cc(NC(=O)Nc2cc(Cl)sc2Cl)no1	23.9%
CC(C)NC(=O)COC(=O)c1ccccc1Oc1ccccc1	-15.9%
CCOc1ccc(C(C(=O)Nc2ccc(F)cc2)N(C(=O)Cn2nnc3ccccc32)C2CC2)cc1 (centres unmarked)	-50.3%
CC(/C=C/c1ccccc1)=N\NC(=O)CSc1ccccn1	-29.1%
Cc1ccccc1CN1CCN(CC(=O)NCc2ccco2)C1=O	10.8%
N#CCCN1CCN(C(=S)c2ccc(-c3cc(Cl)ccc3Cl)o2)CC1	-12.3%
CCC1CCc2sc(C(=O)NCC(c3ccccc3OC)N3CCCC3)cc2C1 (centres unmarked)	-63.6%
O=C(CCn1c(=S)oc2ccccc21)N1CCN(c2ccc(F)cc2)CC1	-25.3%
Cc1ccccc1Cn1cc(CCC(=O)N2CCOCC2)c2ccccc21	-17.2%
O=C(C1CCN(C2CCN(Cc3ccc4cc(F)ccc4n3)CC2)CC1)N1CCCC1	-77.3%
COc1cccc(OCC(O)CN(CCO)Cc2ccccc2)c1.Cl (centres unmarked)	-13.4%
COC(=O)c1ccc(CNC(=O)COC(=O)c2cc(Cl)nc(Cl)c2)cc1	8.69%

SMILES	hERG current change (%, negative = inhibition) at 10uM
COC(=O)C1(C)NC(c2ccc(C)cc2)C2C(=O)N(c3ccc(F)cc3)C(=O)C21 (centres unmarked)	-2.85%
Clc1ccc2oc(-c3cccnc3)nc2c1	-14.9%
Cc1ccc(/C=N/NC(=O)c2nnn(-c3nonc3N)c2CN(C)C2CCCCC2)cc1	3.23%
Cc1occc1-c1nnc(SCC(=O)NCCc2ccccc2)o1	-11.5%
COC(=O)Nc1c(-c2ccccc2)nc2ccc(Cl)cn12	5.95%
O=C(Cc1ccsc1)NCc1ccccc1F	17.1%
COc1ccc(C(=O)Nc2ccc3[nH]c(-c4cccc(OC)c4)cc(=O)c3c2)cc1	2.65%
CC1(C)CC(=O)C2=C(C1)OC(N)=C(C#N)C21CCN(C(=O)OCc2ccccc2)CC1	-2.49%
Cn1c(N2CCC(C(N)=O)CC2)nc2c1c(=O)n(Cc1ccc(Br)cc1)c(=O)n2C	-57.3%
Cc1cc(C)c(OCCOCCN(C)C)c(Br)c1.O=C(O)C(=O)O	-32.2%
O=C(c1sc2ccccc2c1Cl)N1CCN(c2ccccc2F)CC1	-1.51%
COc1ccc(N(CC(=O)NC2CCCC2)C(=O)CCC(=O)Nc2nc(C)cs2)cc1OC	-42%
CCCCn1c(Cc2ccccc2)n[nH]c1=S	7.27%
Cc1ccc(S(=O)(=O)N2CCN(c3ccccc3)CC2)c(C)c1	12.9%
Cc1ccc(-n2nc3c(N4CCC(C(=O)NCc5ccccc5C)CC4)nnc(C)c3c2C)cc1	-15.6%
CCOC(=O)C1(Cc2ccc(OC)cc2)CCN(C(=O)CCc2cnccn2)CC1	-7.37%
COc1cccc(OC)c1C(=O)NC(=S)Nc1ccc2c(c1)OCCO2	13.7%
CCCC(=O)Nc1sc2c(c1C(=O)OCC)CC(C)(C)OC2	-0.959%
O=C(NC(=S)Nc1nc2ccccc2s1)c1cccs1	17.5%
C=C(C=O)CC1CC(O)[C@]2(C)OC3C[C@@H]4OC5C[C@]6(C)O[C@]7(C)CCC8OC9C[C@]%10(C)OC(/C(C)=C\CO)C(O)CC%10OC9CC(C)C8OC7CC6O[C@]5(C)C/C=C\C4OC3CC2O1 (some centres unmarked)	5.79%
CCN(CC)S(=O)(=O)c1ccc(/C=C/C(=O)Nc2ccc(F)cc2F)cc1	-2.24%

SMILES	hERG current change (%, negative = inhibition) at 10uM
COC1Cc2ccccc2N(C(=O)N2CCN(CCO)CC2)c2ccccc21.Cl (centres unmarked)	-16.4%
O=C(COC(=O)CNC(=O)c1cccc([N+](=O)[O-])c1)Nc1cccc(S(=O)(=O)N2CCCCC2)c1	-30.8%
O=C(O)c1ccc(NC(=O)c2cn(-c3ccccc3)nc2-c2ccc(Cl)cc2)cc1	27.6%
O=C(Nc1ccc(-c2nc3ncccc3o2)cc1)c1ccc(Br)o1	2.5%
CCN1CCCC(NC(=O)c2scc3c2CCCC3)C1 (centres unmarked)	5.25%
CCn1cc(C(=O)NCc2ccccc2OC)c(=O)c2ccc(C)nc21	17.6%
CCOc1ccc(NC(=O)c2cccc(-n3cnnn3)c2)cc1	11.2%
Cc1ccc(NC(=O)C[n+]2cc(-c3ccc(C)cc3)n3c2CCC3)cc1.[Cl-]	-70%
Cc1ccc2oc(=O)cc(CN3CC(C)OC(C)C3)c2c1 (centres unmarked)	15.3%
O=C1N(c2ccccc2C(F)(F)F)O[C@@]1(c1ccccc1)C1CCCCC1	4.29%
O=c1cc(C(F)(F)F)[nH]c2c(OC(F)(F)F)cccc12	3.02%
O=C(N1CCOCC1)N1CCN(S(=O)(=O)c2ccc(Cl)cc2)CC1	-2.23%
Cc1ccc(OCC(O)CNS(=O)(=O)c2ccccc2C(=O)N2CCCCC2)cc1 (centres unmarked)	-13.9%
O=C(CSc1ncnc2c1oc1ccccc12)Nc1ccc2c(c1)OCCO2	1.27%
CCOC(=O)C1CCC(CN(Cc2ccccc2C)S(=O)(=O)c2ccc([N+](=O)[O-])cc2)CC1 (centres unmarked)	16.8%
Cn1c(COc2ccc([N+](=O)[O-])cc2)nnc1SCC(N)=O	1.54%
COc1ccc(CN2CCC(=O)N([C@H](CO)CC(C)C)CC2)cc1	-2.62%
CCn1cc(C(=O)NCC2COc3ccccc3O2)c2cc(OC)c(OC)cc2c1=O (centres unmarked)	-1.71%
O=C(Nc1cccnc1)C1CCCN1S(=O)(=O)c1ccc(Cl)c(Cl)c1 (centres unmarked)	-49.3%
COc1ccc(C(=O)/C=C/Nc2ccc(S(=O)(=O)Nc3cc(OC)nc(OC)n3)cc2)c(OC)c1	19.4%
